Out of some 340,000 compounds screened, about 12,000 (3.5%) were called active. The inconclusive results got no clear call from the source; some entries with a clear call stand among them for comparison. The call rests on the fitted dose curve; in most records, active means well fitted inhibition curve with a large enough effect; inconclusive means small, poorly fitted or top-dose-only effect, or another doubt; inactive means no such curve, though single readings can be large or run the other way. No potency is given beside an inconclusive call; the fits are too rough.
Experiment: qHTS Assay for Inhibitors of Hepatitis C Virus (HCV)
Conditions: Huh7.5.1 HCVcc-Cre (HCVcc is cell-culture hepatitis C virus) infection, luciferase reporter, 44 h; series mostly up to 41.8 µM
Method in brief: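 HCVcc-Cre virus at an moi near 0.5 was added right after compound to cells cultured 4 h from seeding (1,000 cells/well). Luciferase activity was determined 44 h later, 15 min after substrate addition at RT.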
Potency means the concentration at half of the fitted maximal effect; tags describe the fitted curve by direction and shape.

SMILES	Potency
COc1ccc(Nc2nc(-c3ccc(OC)cc3)cs2)cc1	inactive
COc1cc(C(=O)NCCCNc2nc3cc(C)c(C)cc3cc2C#N)cc(OC)c1OC	inconclusive [inhibitor, partial curve]
Cc1cc(Nc2ccc3c(c2)OCCO3)n2ncnc2n1	inactive
CN(C)CCCN(C(=O)c1ccc2c(c1)CCCC2)c1nc2ccc(Cl)cc2s1	active: 7.94 µM
O=c1cc(N=Nc2ccc(Cl)cc2)[nH]c(=O)[nH]1	inconclusive [inhibitor, single point]
COc1ccc(C=CC(=O)c2ccc(OC)c(OC)c2O)cc1OC	inactive
Nn1c(SCC(=O)Nc2cccc(S(N)(=O)=O)c2)nnc1C1CC1	inactive
Cc1ccc(-n2ncc3c(SCc4cccnc4)ncnc32)c(C)c1	active: 11.2 µM
COc1ccccc1CNC(=O)c1cc(C(C)C)nc2ccccc12	inconclusive [inhibitor, partial curve]
CC(C)Cn1c(N)c(C(=O)COC(=O)c2cccc(Cl)c2)c(=O)n(C)c1=O	active: 2.24 µM
O=C(N/N=C/c1ccc(F)cc1)c1ccc(OCc2ccccc2)cc1	inactive
CCc1ccccc1NC(=O)CCS(=O)(=O)c1ccc(OC)cc1	inactive
Fc1cccc(CCN2CCNC[C@H]2Cc2cccc3ccccc23)c1	inconclusive [inhibitor, full curve]
O=C(Cc1ccc(Cl)cc1)Nc1ccc(SC(F)F)cc1	inconclusive [inhibitor, partial curve, poor fit]
COc1ccc(C(=O)CSc2cc(C)nc(SCC(=O)c3ccc(C)cc3)n2)cc1	inconclusive [inhibitor, full curve]
COc1ccc2c(c1)c(C(=O)N/N=C/c1cccc(Br)c1)c(C)n2C	inconclusive [inhibitor, single point]
Cc1ccc(N(CC(=O)NCCSCc2ccco2)S(=O)(=O)c2ccc(C)cc2)cc1	inconclusive [inhibitor, partial curve]
Cc1ccnc(NC(=O)C2CCN(S(=O)(=O)c3ccc(C)c(C)c3)CC2)c1	inconclusive [inhibitor, partial curve]
COCCn1cnnc1SCC(=O)Nc1cccc(S(=O)(=O)N2CCCCCC2)c1	inconclusive [inhibitor, single point]
CCc1ccc(-c2cc(C(=O)N/N=C/c3c[nH]c4ccccc34)[nH]n2)cc1	inconclusive [inhibitor, partial curve]
COc1ccc(OC)c(NC(=O)CSc2nc3ccccc3cc2Cc2ccccc2)c1	inconclusive [inhibitor, partial curve]
CC(C)C(C(=O)Nc1ccncc1)c1ccc(Cl)cc1 (centres undefined)	inconclusive [inhibitor, single point]

SMILES	Potency
CCOC(=O)[C@H]1[C@H]2COc3cc(OC)ccc3[C@@H]2N2C(=O)CN(Cc3ccco3)C(=O)[C@@]12C	inactive
Cc1ccc(-c2cnc(-c3ccncc3)o2)cc1	inconclusive [inhibitor, single point]
O=C(CCCn1c(=S)[nH]c2ccsc2c1=O)Nc1ccc2c(c1)OCCO2	inactive
O=C(Nc1cccc(S(=O)(=O)C(F)F)c1)c1ccc(Cl)c(S(=O)(=O)N2CCOCC2)c1	active: 12.6 µM
C=C(C)CNC(=S)N/N=C/c1ccc(N2CCOCC2)cc1	inconclusive [inhibitor, single point]
CCc1cccc(NC(=O)CCCn2nc(CC)n3c(cc4occc43)c2=O)c1	inconclusive [inhibitor, partial curve]
O=C(/C=C/c1cn(-c2ccccc2)nc1-c1cccnc1)N1CCCCC1	inconclusive [inhibitor, single point]
CCOc1ccc(NC(=O)CSc2nc3c(c(=O)n2-c2ccccc2OC)SCC3)cc1	inconclusive [inhibitor, single point]
O=C(CCc1ccc(S(=O)(=O)N2CCOCC2)cc1)Nc1ccc2ccccc2c1	inconclusive [inhibitor, partial curve]
CC1(c2ccncc2)Nc2ccccc2-c2nc3ccccc3n21 (centres undefined)	inactive
O=C(Cc1ccc(Br)cc1)N1CCCCCC1	inconclusive [inhibitor, single point]
Cc1cccc(N2CCN(C(=O)Cc3ccccc3[N+](=O)[O-])CC2)c1C	inactive
O=C(COC(=O)[C@@H]1CC(O)CN1S(=O)(=O)c1ccc2c(c1)OCCO2)Nc1cc(F)ccc1F (some centres undefined)	inconclusive [inhibitor, partial curve, poor fit]
COc1cc(CNCCO)ccc1OCC(=O)Nc1ccc(Br)cc1	active: 5.62 µM
Cc1cc(C)c2nc3sc(C(=O)N4CCOCC4)c(N)c3cc2c1	inconclusive [inhibitor, single point]
O=C(CCN1C(=O)/C(=C/c2ccccc2F)SC1=S)N[C@@H](CO)Cc1ccccc1	inconclusive [inhibitor, single point]
COc1cc(C(=O)NNC(=S)NC(=O)c2ccc(Cl)cc2)cc(OC)c1OC	inconclusive [inhibitor, partial curve]
COc1ccc2nc(C)cc(NCc3cccc(C(F)(F)F)c3)c2c1	active: 10 µM
O=C(CN(C(=O)CSc1nnc(COc2ccccc2)o1)c1ccc(F)cc1)NC1CCCC1	inconclusive [inhibitor, partial curve]
CC1=C(C(=O)c2ccccc2)C(c2cn(-c3ccccc3)nc2-c2ccc(Cl)cc2)NC(=S)N1 (centres undefined)	inconclusive [inhibitor, full curve, poor fit]
Cc1cccc(N=N/C(=C\O)C(=O)c2ccc(Br)cc2)c1	active: 10 µM
CCN(CC)CCCNC(=O)c1cc2c(=O)n(CC)c3ccccc3c2s1	inconclusive [inhibitor, partial curve]

Source: PubChem BioAssay AID651820 (National Center for Advancing Translational Sciences (NCATS), 2012)
